Experimental data taken from PubChem BioAssay AID504466 (National Center for Advancing Translational Sciences (NCATS), 2011).
The campaign covered roughly 330,000 compounds. About 4,200 (1.3%) were called active. The inconclusive results got no clear call from the source; some entries with a clear call stand among them for comparison. The call rests on the fitted dose curve; in most records, active means well fitted activation curve with a large enough effect; inconclusive means small, poorly fitted or top-dose-only effect; inactive means no such curve, though single readings can be large or run the other way. Potencies beside an inconclusive call are fits to weak or partial responses and may not hold up.

test: qHTS screen for small molecules that induce genotoxicity in human embryonic kidney (HEK293T) cells expressing luciferase-tagged ELG1; conditions: HEK293T ELG1-luciferase reporter, luminescence, 16 h; series mostly up to 46 µM; further: nearly all actives have a fitted effect of over 60% in size
Procedure, shortened: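 Step 1: seed 2,000 HEK293T ELG1-luciferase cells per well. Step 2: add compound or DMSO, incubate 16 hr at 37 °C. Step 3: ONE-Glo, 30 min at room temperature, read luminescence.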
Potency means the concentration at half of the fitted maximal effect; tags describe the fitted curve by direction and shape.

Structure (SMILES)	Potency
CCc1noc(C)c1C(=O)Nc1nc(-c2cccs2)cs1	inconclusive: 14.6 µM [activator, partial curve]
Cc1cc(/C=N/NC(=O)c2ccc(CN3CCOCC3)cc2)c(C)n1-c1ccccc1	inconclusive: 29.1 µM [activator, single point]
Nc1nc(Nc2ccccc2)nc(N2CCCC2)c1[N+](=O)[O-]	inconclusive: 23.1 µM [activator, partial curve, poor fit]
COc1cccc(C(=O)NC2=NCCS2)c1OC	inconclusive: 11.2 µM [activator, partial curve, poor fit]
Cc1noc(C)c1COc1cccc(C(=O)Nc2ccc(Br)cc2F)c1	inactive
COc1ccc(NC(=O)CSc2nccn2Cc2ccco2)cc1	active: 16.4 µM
O=C1S/C(=C\c2ccc(N3CCOCC3)o2)C(=O)N1c1ccccc1	inconclusive: 29.1 µM [activator, single point]
Cc1cc(C)n2nc(CNS(=O)(=O)c3cccc([N+](=O)[O-])c3)nc2n1	inactive
CSc1nsc(SCC(=O)Nc2ccc(C(N)=O)cc2)n1	inconclusive: 3.66 µM [activator, full curve, poor fit]
O=C(/C=C/c1ccccc1)NNc1ccc(Cl)cc1	inactive
COc1cccc(C(=O)N=c2sc3c(C)ccc(OC)c3n2C)c1	active: 0.651 µM
CC(=O)c1cnc2nc(SCc3ccccc3)nn2c1C	inconclusive: 7.94 µM [activator, single point]
Cc1nc2cc(NC(=O)CCS(=O)(=O)c3ccccc3)ccc2s1	inconclusive: 4.11 µM [activator, full curve]
Cc1cc2c(N=O)c(NO)ccc2[nH]1	inconclusive: 8.91 µM [activator, partial curve]
Cc1noc(C)c1-c1csc(N2CCC(C(N)=O)CC2)n1	inconclusive: 18.3 µM [activator, single point]
NS(=O)(=O)c1ccc(N/N=C/c2cn(-c3ccccc3)nc2-c2cccs2)c([N+](=O)[O-])c1	inactive
CCOc1ccc(Nc2oc(-c3ccc(Cl)cc3)nc2C#N)cc1	inconclusive: 23.1 µM [activator, partial curve, poor fit]
O=C(NCCNS(=O)(=O)c1ccccc1Cl)c1cc(OCC(F)(F)F)ccc1OCC(F)(F)F	inactive
O=C(N/N=C/c1ccco1)Nc1ccccc1	inconclusive: 18.4 µM [activator, partial curve]
CCOC(=O)C(C)Oc1cccc2c(=O)n(CC(=O)NCc3ccccc3)ccc12 (configuration not stated)	inactive
COc1cccc2cc(C(=O)NCCc3ccccc3)c(=O)oc12	inconclusive: 23.1 µM [activator, partial curve, poor fit]
CC1C(=O)N2CCCc3cc(NC(=O)C4CC4)cc1c32 (configuration not stated)	inconclusive: 20.6 µM [activator, single point]
CCOC(=O)[C@H]1[C@H]2COc3ccc(C)cc3[C@@H]2N2C(=O)c3cc(Cl)ccc3NC(=O)[C@@]12C	inactive
O=C(COc1ccc([N+](=O)[O-])cc1)Nc1ccc(NC(=O)c2ccccc2)cc1	inconclusive: 16.4 µM [activator, partial curve]

Structure (SMILES)	Potency
COc1ccc(-c2nnn(Cc3ccccc3)n2)cc1	inconclusive: 20.6 µM [activator, partial curve, poor fit]
Cc1ccc(/C=N/c2sc3c(c2C#N)CCCCC3)o1	active: 1.46 µM
COc1ccc(CNC(=O)/C(C#N)=C/c2cccc(OC)c2OC)cc1	inconclusive: 32.6 µM [activator, partial curve, poor fit]
CC1CCc2sc(C(=O)Nc3ccc(C(N)=O)cc3)cc2C1 (configuration not stated)	inconclusive: 13 µM [activator, partial curve, poor fit]
CCc1ccc(NC(=O)NC2CCCCCCC2)cc1	inconclusive: 3.66 µM [activator, single point]
Cc1ccc(N(CC(=O)Nc2ccc(-c3nc4ccc(C)cc4s3)cc2)S(C)(=O)=O)cc1	inconclusive: 11.6 µM [activator, partial curve, poor fit]
O=C(Nc1ccc(S(=O)(=O)N2CCc3ccccc32)cc1)c1ccc2c(c1)OCO2	active: 23.1 µM
Cc1nc(S/C(=C/c2ccc(-c3ccc(Cl)cc3)o2)C(=O)O)n[nH]1	inactive
C/C(=N\NC(=O)c1ccc(O)cc1)c1ccc(NC(=O)Cc2ccccc2)cc1	inconclusive: 29.1 µM [activator, single point]
O=C(Cn1cc([N+](=O)[O-])ccc1=O)NCC1COc2ccccc2O1 (configuration not stated)	inactive
Cn1c(SCc2ccccc2)nnc1-c1ccco1	inconclusive: 10.3 µM [activator, partial curve, poor fit]
O=C(NC12CC3CC(CC(C3)C1)C2)c1ccc(-c2ccc(Br)cc2)o1	inconclusive: 8.2 µM [activator, partial curve, poor fit]
O=C(NC1CC1)c1cccc(Nc2ccc(-c3ccc4c(c3)OCCO4)nn2)c1	inconclusive: 1.64 µM [activator, partial curve, poor fit]
S=C(Nc1cccc2ccccc12)NC1CCCCC1	inconclusive: 23.1 µM [activator, partial curve, poor fit]
O=C(Nc1ccc2nc[nH]c2c1)c1ccco1	inconclusive: 20.6 µM [activator, partial curve, poor fit]
CCc1nnc(NC(=O)C2CCCCC2)s1	inactive
CC(=O)c1cc(C#N)c(NCCCN(C)C)nc1C	inactive
COc1ccccc1C(=O)Nc1cccc(C(=O)c2ccccc2)c1	inactive
COc1ccc(C2NC(c3ccc(OC)cc3OC)C(C)C(=O)C2C)c(OC)c1 (configuration not stated)	inactive
CC1CCCCC1NC(=O)COC(=O)c1ccc2c(c1Cl)C(=O)c1ccccc1C2=O (configuration not stated)	inconclusive: 29.1 µM [activator, partial curve, poor fit]
O=c1sc(N2CCN(c3ccccc3F)CC2)nc2ccsc12	active: 7.31 µM
Cc1cc2ncc(C(=O)Nc3ccsc3C(=O)O)c(C)n2n1	inconclusive: 29.1 µM [activator, single point]
CS(=O)(=O)c1ccc(Cl)c(NC(=O)COc2ccc3c(c2)CCC3)c1	inconclusive: 23.1 µM [activator, partial curve, poor fit]
COc1cc(/C=N/N=C(\N)c2nonc2N)cc(OC)c1O	inconclusive: 23.1 µM [activator, partial curve, poor fit]

Structure (SMILES)	Potency
CCOc1ccc2cc(C#N)c(SCC(=O)N3CCOCC3)nc2c1	active: 2.59 µM
COc1ccc(/C=N/Nc2ncnc3sc(C)c(C)c23)cc1	inactive
CCC1CCc2sc(C(=O)NCC3CCCO3)cc2C1 (configuration not stated)	inconclusive: 3.26 µM [activator, full curve, poor fit]
CC(C)(C)NC(=O)NC(=O)COC(=O)CCC1CCCC1	inactive
CN1CCN(CC(=O)Nc2cccc(S(=O)(=O)N(C)c3ccccc3)c2)CC1	inactive
O=C(N/N=C/c1ccccc1[N+](=O)[O-])c1cccs1	inconclusive: 9.2 µM [activator, partial curve]
C[C@@]12C(=O)OC(=O)[C@]1(C)C1CCC2O1	inconclusive: 2.59 µM [activator, single point]
Cc1ccc2nc(NC(=O)c3ccc(Br)o3)sc2c1	inconclusive: 0.651 µM [activator, full curve]
O=C(CCSc1ccccc1)N1CCN(c2ccccc2)CC1	inconclusive: 16.4 µM [activator, partial curve]
c1ccc(CCNc2nc(-c3cccnc3)cs2)cc1	inconclusive: 6.51 µM [activator, partial curve]
O=C(NCCc1ccccc1F)c1cccc2cccnc12	inconclusive: 5.8 µM [activator, partial curve]
Cc1ccc(OCC(=O)OCC(=O)c2cccc([N+](=O)[O-])c2)cc1C	inactive
COc1ccc(-c2nn(-c3ccccc3)cc2/C=N/Nc2cccc(C(=O)O)c2)cc1	inconclusive: 11.6 µM [activator, partial curve, poor fit]
COc1ccccc1C1(O)C(=O)Nc2ccc(C)cc21 (configuration not stated)	inactive
CCS(=O)(=O)N1Cc2ccccc2CC1C(=O)Nc1ccc(OC)c(OC)c1 (configuration not stated)	inactive
CC1(C(=O)OCC(=O)c2c[nH]c3ccccc23)CC1(Cl)Cl (configuration not stated)	inconclusive: 6.51 µM [activator, partial curve, poor fit]
CSc1nnc(NC(=O)c2ccc(S(=O)(=O)N(C)C)cc2)s1	inconclusive: 5.8 µM [activator, partial curve]
O=C(NCCOC(=O)C1COc2ccccc2O1)c1cccnc1 (configuration not stated)	inactive
CCOc1ccc(N=C(C)C2=C(O)c3ccccc3C2=O)cc1	inconclusive: 2.06 µM [activator, full curve, poor fit]
Cc1noc(C)c1COc1cccc(C(=O)OC(C)C(=O)Nc2ccc3c(c2)OCO3)c1 (configuration not stated)	inconclusive: 32.6 µM [activator, partial curve, poor fit]
C/C(CC(=O)Nc1c(C)cc(C)cc1C)=N\NC(=O)Cc1ccccc1	inactive
N#Cc1nc(-c2cccs2)oc1NCCc1ccccc1	inconclusive: 29.1 µM [activator, single point]
Cc1ccc2nc(-c3ccc(O)cc3)oc2c1	inconclusive: 2.31 µM [activator, full curve]
CCOC(=O)C1(CCOC)CCN(Cc2nc(C(C)C)cs2)CC1	inactive
